Measurements taken from publication PMC4336329 (PLoS ONE, 2015).
The whole screen tested about 310,000 compounds, of which about 2,200 (0.71%) showed an effect of 50% or more. The effect is printed as a negative number. This is one part of the list.

molecular target: human ether-à-go-go-related gene (hERG) potassium channel (human, UniProt Q12809); assay: primary screen, population patch clamp on CHO cells stably expressing hERG
Sequence (Q12809 whole entry, looked up): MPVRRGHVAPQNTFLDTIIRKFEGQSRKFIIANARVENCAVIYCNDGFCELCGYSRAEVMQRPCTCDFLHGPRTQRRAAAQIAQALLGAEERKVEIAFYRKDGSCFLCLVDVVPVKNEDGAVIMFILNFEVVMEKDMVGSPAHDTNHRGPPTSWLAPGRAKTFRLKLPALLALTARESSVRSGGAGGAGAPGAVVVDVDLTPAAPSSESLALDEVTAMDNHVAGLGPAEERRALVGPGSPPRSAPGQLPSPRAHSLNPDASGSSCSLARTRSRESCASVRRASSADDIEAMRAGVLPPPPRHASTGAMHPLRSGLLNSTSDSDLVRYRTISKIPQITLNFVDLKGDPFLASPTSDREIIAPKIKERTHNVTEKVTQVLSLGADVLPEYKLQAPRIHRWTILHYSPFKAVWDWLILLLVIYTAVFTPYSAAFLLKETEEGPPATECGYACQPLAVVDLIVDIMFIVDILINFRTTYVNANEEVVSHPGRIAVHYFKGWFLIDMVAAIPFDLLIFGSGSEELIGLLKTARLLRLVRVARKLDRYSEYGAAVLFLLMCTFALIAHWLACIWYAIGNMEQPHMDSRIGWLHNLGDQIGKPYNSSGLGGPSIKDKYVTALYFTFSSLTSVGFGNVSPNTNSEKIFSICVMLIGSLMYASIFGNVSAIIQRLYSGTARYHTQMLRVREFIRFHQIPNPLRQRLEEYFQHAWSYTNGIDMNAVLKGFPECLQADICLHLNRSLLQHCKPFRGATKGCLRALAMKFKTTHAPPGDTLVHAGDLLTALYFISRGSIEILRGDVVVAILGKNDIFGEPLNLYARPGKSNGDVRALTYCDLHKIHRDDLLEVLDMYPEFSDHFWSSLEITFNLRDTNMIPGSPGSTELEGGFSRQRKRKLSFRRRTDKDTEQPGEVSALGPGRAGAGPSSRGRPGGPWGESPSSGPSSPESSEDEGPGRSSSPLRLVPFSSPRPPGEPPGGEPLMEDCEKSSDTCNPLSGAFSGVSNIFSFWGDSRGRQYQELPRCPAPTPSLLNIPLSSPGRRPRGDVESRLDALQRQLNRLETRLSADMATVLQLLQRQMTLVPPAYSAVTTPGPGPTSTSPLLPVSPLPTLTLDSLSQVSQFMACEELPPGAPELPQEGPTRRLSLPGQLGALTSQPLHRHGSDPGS

Row | Structure (SMILES) | hERG current change (%, negative = inhibition) at 1uM
1 | CC(C)(C)NC(=O)CSc1nncn1NCc1cccc2ccccc12 | 8.57%
2 | O=C1NC[C@H](c2ccccc2)N(CCc2cccc(F)c2)C1=O | 11.1%
3 | CCOCCCNC(=S)N1C2CCC1CC(NC(=O)NC1CCCCC1)C2 (stereo not drawn) | 1.61%
4 | CC1CCc2cc(F)ccc2N1C(=O)C12CCC(C)(C(=O)O1)C2(C)C (stereo not drawn) | 7.96%
5 | N#Cc1c(-c2ccncc2)c2c([nH]c1=O)-c1ccccc1OC2 | 20.9%
6 | Cc1ccc(NC(=O)c2ccc(OC(=S)N3CCOCC3)cc2)cc1 | 5.81%
7 | Cc1ccccc1N1C(=O)c2ccccc2C1O (stereo not drawn) | 13.4%
8 | COc1ccccc1NC(=O)/C(C#N)=C/c1ccncc1 | 19%
9 | C/C(=N/Nc1nc(-c2ccccc2)cc(-c2ccc(F)cc2)n1)c1cccc(N)c1 | 3.31%
10 | COc1ccc(N2CCN(c3nc4ccccc4nc3NS(=O)(=O)c3ccccc3)CC2)cc1 | 9.73%
11 | O=C(O)c1cccnc1Nc1cccc(C(F)(F)F)c1 | 16.5%
12 | O=C(Nc1ccc(SC(F)F)cc1)C12CCC(CC1)C2 | 5.66%
13 | CCCCOc1ccccc1-c1cc(C(=O)O)[nH]n1 | 8.23%
14 | COc1ccc(-c2nnc(SCc3cc(C)cc(C)c3)o2)cc1 | 7.38%
15 | CCN(C(=O)Cc1c(C(=O)O)n(C)c2ccccc12)c1cc(OC)ccc1OC | 8.98%
16 | Nc1ccc2nc(SCC(=O)c3ccccc3)sc2c1 | 10.8%
17 | CCN1CCN(C(CNS(=O)(=O)c2ccc(OC)c(C)c2)c2cccnc2)CC1 (stereo not drawn) | -27.5%
18 | COc1cccc(N(C(=O)CNC(=O)c2ccco2)C(C(=O)NC2CCCC2)c2ccco2)c1 (stereo not drawn) | -1.85%
19 | COc1ccc2oc(C(=O)OC(C)C(=O)NC3(C#N)CCCCC3)c(C)c2c1 (stereo not drawn) | -4.03%
20 | CCCCOC(=O)c1cc(=O)[nH]c2ccc(C)cc12 | 11.1%
21 | CCOC(=O)N1CCC(NC(=O)Cn2nc(-c3ccccc3)ccc2=O)CC1 | 6.2%
22 | COc1ccc([C@H]2CC(=O)C=C(c3cccc4c3Oc3ccccc3S4)C2)cc1 | -6.78%
23 | COC(=O)c1ccc(COn2nnc3ccccc32)cc1 | 9.88%

Row | Structure (SMILES) | hERG current change (%, negative = inhibition) at 1uM
24 | O=C(Nc1cccc(S(=O)(=O)N2CCCCC2)c1)c1ccc(S(=O)(=O)C(F)F)cc1 | 10.8%
25 | Cc1ccc2c(c1)N(CCC(=O)NCC1CCCO1)C(=O)CO2 (stereo not drawn) | -3.9%
26 | CS(=O)(=O)c1ccc(Cl)c(NC(=O)COC(=O)CNC(=O)c2sc3ccccc3c2Cl)c1 | 7.41%
27 | CCn1c(COc2ccc(C)cc2)nnc1SCC(=O)Nc1ccc2c(c1)OCCO2 | 13%
28 | COc1ccc(NC(=O)CN(C)C(=O)CNC(=O)Cc2cccc3ccccc23)cc1 | 11%
29 | COC(=O)C1=C(c2cccc(OCc3ccccc3)c2)C[C@@H]2CC[C@H]1N2C(=O)NCc1cccc(F)c1 | 14.4%
30 | COc1ccccc1OC(=O)CCN1c2ccccc2Sc2ccccc21 | 7.3%
31 | O=C(Nc1ccc(F)cc1F)c1cc(-c2ccco2)on1 | 5.34%
32 | Cn1c(CN2CCOCC2)nnc1SCC(=O)Nc1ccc([N+](=O)[O-])cc1O | 10.5%
33 | CN(C)S(=O)(=O)c1cccc(C(=O)Nc2n[nH]c(C(F)(F)F)n2)c1 | 12.7%
34 | O=C(CS(=O)(=O)Cc1ccccc1)NCc1ccccc1Cl | 8.36%
35 | COc1ccc(CNc2nc(SC)n[nH]2)cc1OC | 15.4%
36 | CN(C)c1nnnn1Cc1ccc(Cl)cc1Cl | 9.13%
37 | CCOc1ccccc1/C=C/c1onc(C)c1S(=O)(=O)N1CCC(C(=O)NC(C)C)CC1 | 11%
38 | Cc1ccc(C(=O)N2CCOCC2)cc1S(=O)(=O)N1CCOCC1 | 17.9%
39 | O=C(NNS(=O)(=O)c1ccc(Br)cc1)NC1CCCCC1 | 5.72%
40 | COc1ccccc1CNC(=O)CSc1ccc(C)cc1 | -8.53%
41 | CN(C)/C=C1\N=C(c2cccnc2Oc2ccc(Cl)cc2)OC1=O | 12.2%
42 | COc1ccccc1C(NC(=O)C1CCCCC1)c1c(O)ccc2ccccc12 (stereo not drawn) | 1.87%
43 | CC1Sc2ccc(S(=O)(=O)CCC(=O)N3CCCCC3)cc2NC1=O (stereo not drawn) | 11.6%
44 | N#Cc1c(-c2ccco2)nc(SCC(=O)Nc2cccc(Cl)c2)[nH]c1=O | 2.19%
45 | CCOc1ccccc1N1CCN(c2nc(N)c(C#N)c(CC#N)c2C#N)CC1 | 0.82%
46 | COc1ccc(C2=C(CC(=O)O)C(=O)CC2)cc1 | 14.7%

Row | Structure (SMILES) | hERG current change (%, negative = inhibition) at 1uM
47 | Cc1cc(C(=O)NNS(=O)(=O)c2cc(C(=O)O)ccc2Cl)c(C)n1-c1ccccc1 | 6.4%
48 | CCCc1noc2c1/C(=N\O)CC(c1ccccc1)C2 (stereo not drawn) | 2.29%
49 | COC(=O)C(C(=O)Nc1cccc(C)n1)C1CCCCCC1 (stereo not drawn) | 15.9%
50 | O=C(Cc1ccc(-c2ccccc2)cc1)OCC(=O)N1CCCC1=O | 25.5%
51 | COC(=O)c1cc2c(cc1N)OCCO2 | 21.5%
52 | COCCNC(=O)CSc1cc(-c2ccccc2)c2ccc(OC)cc2n1 | -2.15%
53 | CC(=O)NNc1ncnc2c1cnn2-c1ccccc1 | 1.51%
54 | COc1ccc(C2C=C(C34CC5CC(CC(C5)C3)C4)NC(=S)N2)cc1 (stereo not drawn) | 1.47%
55 | O=C(OCC(=O)N1CCCCCC1)c1n[nH]c(=O)c2ccccc12 | 8.67%
56 | C=CCN1C(=O)/C(=C\c2ccc(C)cc2)N=C1SCC(=O)NCCC | 7.03%
57 | COc1ccc(-c2noc(CN(C(=O)c3ccc4c(c3)OCO4)C(C)C)n2)cc1 | 12%
58 | CCN1C(=O)/C(=C/c2ccc3c(c2)CCN3CCCCl)C(=O)NC1=S | 9.33%
59 | CCOC(=O)c1ccc(NC(=O)N2CCN(c3cccc(OC)c3)CC2)cc1 | -7.21%
60 | Clc1ccc(-n2ncc3c(N4CCCCCC4)ncnc32)cc1 | 18.7%
61 | CC12CN3CC(C)(CN(C1)C3c1ccc3ccccc3c1O)C2=O (stereo not drawn) | 9.61%
62 | CCN(CC(=O)Nc1cc(Cl)ccc1C)C(=O)Cc1ccsc1 | 9.51%
63 | COc1ccccc1NC(=O)NNC(=O)COc1ccc2ccccc2c1 | 13.8%
64 | O=C1CC2(CCN(S(=O)(=O)c3ccccc3F)CC2)Oc2ccccc21 | -5.89%
65 | Cc1ccc(-c2cc(C(=O)N/N=C/c3ccccc3)n[nH]2)o1 | -1.26%
66 | COc1ccccc1C(=O)Oc1ccc2ccc(=O)oc2c1 | 11.3%
67 | Clc1cccc(C2Nc3cccc4cccc(c34)N2)c1 | 12%
68 | CCOC(=O)c1cccnc1SC(CC)C(=O)NCc1ccco1 (stereo not drawn) | -6.91%
69 | O=C(c1ccc(=O)[nH]c1)N1CCN(S(=O)(=O)c2ccc3ccccc3c2)CC1 | 6.52%

Row | Structure (SMILES) | hERG current change (%, negative = inhibition) at 1uM
70 | CCCc1nc2ccccc2c(=O)n1CCc1ccccc1 | 15.6%
71 | Cl.Clc1ccc(CN2C3=NCCCN3c3ccccc32)cc1 | -54.3%
72 | COc1ccc(OCC(=O)N/N=C/c2ccsc2)cc1 | -0.486%
73 | Br.CCCc1nnc2n1N=C(c1ccc(OC)c(OC)c1)CS2 | 3.96%
74 | COc1ccc(C(=O)N2CCN(CCc3ccccc3)CC2)cc1[N+](=O)[O-] | -73.5%
75 | O=C(c1ccc(C(F)(F)F)cc1)C1CCCN(C(=O)CN2CCCC2=O)C1 (stereo not drawn) | 10.2%
76 | COc1ccc(C2(C(=O)N3CCC(n4nc(-c5ccccc5)oc4=O)CC3)CC2)cc1 | 14.8%
77 | CCN1C(=O)CC(Sc2ccccc2C(=O)O)C1=O (stereo not drawn) | -1.91%
78 | CCOC(=O)NC1(C(F)(F)F)NC(=O)N(C2CCCCC2)C1=O (stereo not drawn) | 13.5%
79 | CCc1nc(OCCN(C)C)c2oc3ccccc3c2n1 | 8.48%
80 | Cc1ccc(S(=O)c2snnc2C)cc1 (stereo not drawn) | 15.8%
81 | Cn1c(NCCCN2CCOCC2)nc2c1c(=O)n(Cc1ccc(Cl)cc1Cl)c(=O)n2C | -3.89%
82 | CN(C)Cc1ccc(O)c(CCc2ccccc2)n1.Cl | 3.18%
83 | Cc1ccc(S(=O)(=O)N(C)C)cc1-n1c(SCC(=O)Nc2ccc(F)c(F)c2F)nc2ccccc2c1=O | 15.2%
84 | NS(=O)(=O)c1ccc(-c2cccc(/C=C3\SC(=O)NC3=O)c2)cc1 | 6.21%
85 | O=C(CSc1cc(Cl)ccc1Cl)Nc1ccc(N2CCOCC2)cc1 | -20%
86 | Cn1c2ccccc2c2cc(C(=O)N3CCOCC3)sc21 | 14.8%
87 | CNS(=O)(=O)c1ccc(NC(=O)Nc2cccc(F)c2)cc1 | 11.7%
88 | COc1cccc(C(=O)NNC(=O)C(=O)Nc2ccc(C)cc2)c1 | 10.6%
89 | CCC1=C(c2cc(OC)c(OC)c(OC)c2)C2(CCCC2)C(=O)O1 | 6.61%
90 | CC(=O)Nc1cccc(-c2nnc(-c3ccc(C)cc3)o2)c1 | 17.6%
